# From patent publication US11618753B2 (priority 2018, dated 2023)
# System: MLKL phosphorylation, HT29-L23 human colorectal adenocarcinoma cells
# Experiment: cells
# Details: read-out: pMLKL HCS Cell Assay (IC50, uM)
row,Compound,IC50 [µM]
1,"COc1ncc(-c2cc(CN3CC4C(C3)C4(F)F)c3c(N)ncnn23)cc1C(=O)N[C@@H]1CN(C(=O)[C@@](C)(O)C(F)(F)F)C[C@@H]1F (stereo partly drawn) [Example 1607, 5-[4-amino-5-({6,6-difluoro-3-azabicyclo[3.1.0]hexan-3-yl}methyl)pyrrolo[2,1-f][1,2,4]triazin-7-yl]-N-[(3R,4S)-4-fluoro-1-[(2R)-3,3,3-trifluoro-2-hydroxy-2-methylpropanoyl]pyrrolidin-3-yl]-2-methoxypyridine-3-carboxamide]",0.0012
2,"COc1ncc(-c2cc(CN3[C@@H]4CC[C@H]3CC(F)(F)C4)c3c(N)ncnn23)cc1C(=O)N[C@@H]1CN(C(=O)[C@@](C)(O)C(F)(F)F)C[C@@H]1F [Example 1608, 5-(4-amino-5-{[(1R,5S)-3,3-difluoro-8-azabicyclo[3.2.1]octan-8-yl]methyl}pyrrolo[2,1-f][1,2,4]triazin-7-yl)-N-[(3R,4S)-4-fluoro-1-[(2R)-3,3,3-trifluoro-2-hydroxy-2-methylpropanoyl]pyrrolidin-3-yl]-2-methoxypyridine-3-carboxamide]",0.00059
3,"COc1ncc(-c2cc(CN3CCC4(CC3)CC4(F)F)c3c(N)ncnn23)cc1C(=O)N[C@@H]1CN(C(=O)[C@@](C)(O)C(F)(F)F)C[C@@H]1F [Example 1610, 5-[4-amino-5-({1,1-difluoro-6-azaspiro[2.5]octan-6-yl}methyl)pyrrolo[2,1-f][1,2,4]triazin-7-yl]-N-[(3R,4S)-4-fluoro-1-[(2R)-3,3,3-trifluoro-2-hydroxy-2-methylpropanoyl]pyrrolidin-3-yl]-2-methoxypyridine-3-carboxamide]",0.00051
4,"COc1ncc(-c2cc(CN3[C@@H]4CC[C@H]3CC(F)(F)C4)c3c(N)ncnn23)cc1C(=O)N[C@@H]1CN(C(=O)C2CC(F)(F)C2)C[C@@H]1F [Example 1612, 5-(4-amino-5-{[(1R,5S)-3,3-difluoro-8-azabicyclo[3.2.1]octan-8-yl]methyl}pyrrolo[2,1-f][1,2,4]triazin-7-yl)-N-[(3R,4S)-1-(3,3-difluorocyclobutanecarbonyl)-4-fluoropyrrolidin-3-yl]-2-methoxypyridine-3-carboxamide]",0.0084
5,"COc1ncc(-c2cc(CN3CCC4(CC3)CC4(F)F)c3c(N)ncnn23)cc1C(=O)N[C@@H]1CN(C(=O)OCC(F)(F)F)C[C@@H]1F [Example 1613, 2,2,2-trifluoroethyl (3R,4S)-3-{5-[4-amino-5-({1,1-difluoro-6-azaspiro[2.5]octan-6-yl}methyl)pyrrolo[2,1-f][1,2,4]triazin-7-yl]-2-methoxypyridine-3-amido}-4-fluoropyrrolidine-1-carboxylate]",0.0046
6,"COc1ncc(-c2cc(CN3CCC3)c3c(N)ncnn23)cc1C(=O)N[C@@H]1CN(C(=O)c2ccccc2F)C[C@@H]1F [Example 1615, 5-{4-amino-5-[(azetidin-1-yl)methyl]pyrrolo[2,1-f][1,2,4]triazin-7-yl}-N-[(3R,4S)-4-fluoro-1-(2-fluorobenzoyl)pyrrolidin-3-yl]-2-methoxypyridine-3-carboxamide]",0.0055
7,"COc1ncc(-c2cc(CN3CC(F)(F)C3)c3c(N)ncnn23)cc1C(=O)N[C@@H]1CN(C(=O)[C@@](C)(O)C(F)(F)F)C[C@@H]1F [Example 1616, 5-{4-amino-5-[(3,3-difluoroazetidin-1-yl)methyl]pyrrolo[2,1-f][1,2,4]triazin-7-yl}-N-[(3R,4S)-4-fluoro-1-[(2R)-3,3,3-trifluoro-2-hydroxy-2-methylpropanoyl]pyrrolidin-3-yl]-2-methoxypyridine-3-carboxamide]",0.00024
8,"COc1ncc(-c2cc(CN3CC(F)(F)C3)c3c(N)ncnn23)cc1C(=O)N[C@@H]1CN(C(=O)C2CC2(F)F)C[C@@H]1F (stereo partly drawn) [Example 1617, 5-{4-amino-5-[(3,3-difluoroazetidin-1-yl)methyl]pyrrolo[2,1-f][1,2,4]triazin-7-yl}-N-[(3R,4S)-1-(2,2-difluorocyclopropanecarbonyl)-4-fluoropyrrolidin-3-yl]-2-methoxypyridine-3-carboxamide]",0.0011
9,"COc1ncc(-c2cc(CN3CC(F)(F)C3)c3c(N)ncnn23)cc1C(=O)N[C@@H]1CN(C(=O)C(C)(C)C(F)(F)F)C[C@@H]1F [Example 1618, 5-{4-amino-5-[(3,3-difluoroazetidin-1-yl)methyl]pyrrolo[2,1-f][1,2,4]triazin-7-yl}-N-[(3R,4S)-4-fluoro-1-(3,3,3-trifluoro-2,2-dimethylpropanoyl)pyrrolidin-3-yl]-2-methoxypyridine-3-carboxamide]",0.00068
10,"COc1ncc(-c2cc(CN3CC(F)(F)C3)c3c(N)ncnn23)cc1C(=O)N[C@@H]1CN(C(=O)C(C)(C)C)C[C@@H]1F [Example 1619, 5-{4-amino-5-[(3,3-difluoroazetidin-1-yl)methyl]pyrrolo[2,1-f][1,2,4]triazin-7-yl}-N-[(3R,4S)-1-(2,2-dimethylpropanoyl)-4-fluoropyrrolidin-3-yl]-2-methoxypyridine-3-carboxamide]",0.0013
11,"COc1ncc(-c2cc(CN3CC(F)(F)C3)c3c(N)ncnn23)cc1C(=O)N[C@@H]1CN(C(=O)C2CCC(F)(F)C2)C[C@@H]1F (stereo partly drawn) [Example 1620, 5-{4-amino-5-[(3,3-difluoroazetidin-1-yl)methyl]pyrrolo[2,1-f][1,2,4]triazin-7-yl}-N-[(3R,4S)-1-(3,3-difluorocyclopentanecarbonyl)-4-fluoropyrrolidin-3-yl]-2-methoxypyridine-3-carboxamide]",0.00096
12,"COc1ncc(-c2cc(CN3CCC(F)(F)CC3)c3c(N)ncnn23)cc1C(=O)N[C@@H]1CN(C(=O)C2CC2(F)F)C[C@@H]1F (stereo partly drawn) [Example 1621, 5-{4-amino-5-[(4,4-difluoropiperidin-1-yl)methyl]pyrrolo[2,1-f][1,2,4]triazin-7-yl}-N-[(3R,4S)-1-(2,2-difluorocyclopropanecarbonyl)-4-fluoropyrrolidin-3-yl]-2-methoxypyridine-3-carboxamide]",0.00067
13,"COc1ncc(-c2cc(CN3CCC(F)(F)CC3)c3c(N)ncnn23)cc1C(=O)N[C@@H]1CN(C(=O)C(C)(C)C(F)(F)F)C[C@@H]1F [Example 1622, 5-{4-amino-5-[(4,4-difluoropiperidin-1-yl)methyl]pyrrolo[2,1-f][1,2,4]triazin-7-yl}-N-[(3R,4S)-4-fluoro-1-(3,3,3-trifluoro-2,2-dimethylpropanoyl)pyrrolidin-3-yl]-2-methoxypyridine-3-carboxamide]",0.0011
14,"COc1ncc(-c2cc(CN3CCC(F)(F)CC3)c3c(N)ncnn23)cc1C(=O)N[C@@H]1CN(C(=O)C2CCC(F)(F)C2)C[C@@H]1F (stereo partly drawn) [Example 1623, 5-{4-amino-5-[(4,4-difluoropiperidin-1-yl)methyl]pyrrolo[2,1-f][1,2,4]triazin-7-yl}-N-[(3R,4S)-1-(3,3-difluorocyclopentanecarbonyl)-4-fluoropyrrolidin-3-yl]-2-methoxypyridine-3-carboxamide]",0.0023
15,"CCC(O)(C(=O)N1C[C@H](F)[C@H](NC(=O)c2cc(-c3cc(CN4CCC(F)(F)CC4)c4c(N)ncnn34)cnc2OC)C1)C(F)(F)F (stereo partly drawn) [Example 1625, 5-{4-amino-5-[(4,4-difluoropiperidin-1-yl)methyl]pyrrolo[2,1-f][1,2,4]triazin-7-yl}-N-[(3R,4S)-4-fluoro-1-[2-hydroxy-2-(trifluoromethyl)butanoyl]pyrrolidin-3-yl]-2-methoxypyridine-3-carboxamide]",0.0011
16,"COc1ncc(-c2cc(CN3CCC(F)(F)CC3)c3c(N)ncnn23)cc1C(=O)N[C@@H]1CN(C(=O)c2ccccc2F)C[C@@H]1F [Example 1626, 5-{4-amino-5-[(4,4-difluoropiperidin-1-yl)methyl]pyrrolo[2,1-f][1,2,4]triazin-7-yl}-N-[(3R,4S)-4-fluoro-1-(2-fluorobenzoyl)pyrrolidin-3-yl]-2-methoxypyridine-3-carboxamide]",0.00091
17,"COc1ncc(-c2cc(CN3CCC(C(F)(F)F)CC3)c3c(N)ncnn23)cc1C(=O)N[C@@H]1CN(C(=O)C2CC2(F)F)C[C@@H]1F (stereo partly drawn) [Example 1627, 5-(4-amino-5-{[4-(trifluoromethyl)piperidin-1-yl]methyl}pyrrolo[2,1-f][1,2,4]triazin-7-yl)-N-[(3R,4S)-1-(2,2-difluorocyclopropanecarbonyl)-4-fluoropyrrolidin-3-yl]-2-methoxypyridine-3-carboxamide]",0.0086
18,"COc1ncc(-c2cc(CN3CCC(C(F)(F)F)CC3)c3c(N)ncnn23)cc1C(=O)N[C@@H]1CN(C(=O)C(C)(C)F)C[C@@H]1F [Example 1628, 5-(4-amino-5-{[4-(trifluoromethyl)piperidin-1-yl]methyl}pyrrolo[2,1-f][1,2,4]triazin-7-yl)-N-[(3R,4S)-4-fluoro-1-(2-fluoro-2-methylpropanoyl)pyrrolidin-3-yl]-2-methoxypyridine-3-carboxamide]",0.061
19,"CCC(O)(C(=O)N1C[C@H](F)[C@H](NC(=O)c2cc(-c3cc(CN4CCC(C(F)(F)F)CC4)c4c(N)ncnn34)cnc2OC)C1)C(F)(F)F (stereo partly drawn) [Example 1629, 5-(4-amino-5-{[4-(trifluoromethyl)piperidin-1-yl]methyl}pyrrolo[2,1-f][1,2,4]triazin-7-yl)-N-[(3R,4S)-4-fluoro-1-[2-hydroxy-2-(trifluoromethyl)butanoyl]pyrrolidin-3-yl]-2-methoxypyridine-3-carboxamide]",0.0092
20,"COc1ncc(-c2cc(CN3CCC(C(F)(F)F)CC3)c3c(N)ncnn23)cc1C(=O)N[C@@H]1CN(C(=O)C(C)(C)C(F)(F)F)C[C@@H]1F [Example 1630, 5-(4-amino-5-{[4-(trifluoromethyl)piperidin-1-yl]methyl}pyrrolo[2,1-f][1,2,4]triazin-7-yl)-N-[(3R,4S)-4-fluoro-1-(3,3,3-trifluoro-2,2-dimethylpropanoyl)pyrrolidin-3-yl]-2-methoxypyridine-3-carboxamide]",0.024
21,"COc1ncc(-c2cc(CN3CCC(C(F)(F)F)CC3)c3c(N)ncnn23)cc1C(=O)N[C@@H]1CN(C(=O)CC(O)(C(F)(F)F)C(F)(F)F)C[C@@H]1F [Example 1631, 5-(4-amino-5-{[4-(trifluoromethyl)piperidin-1-yl]methyl}pyrrolo[2,1-f][1,2,4]triazin-7-yl)-N-[(3R,4S)-4-fluoro-1-[4,4,4-trifluoro-3-hydroxy-3-(trifluoromethyl)butanoyl]pyrrolidin-3-yl]-2-methoxypyridine-3-carboxamide]",0.0083
